Test results as given in the supplement of paper PMC9174493.
Where a name gives a salt, the structure may show the parent alone. This is one part of the list. Single values of this set are uncertain. Values with irradiation are relative to irradiated vehicle.

What follows are molecules tested on A549-Dual (assay: ISRE reporter (Lucia luciferase) activity, viability-corrected, relative to vehicle (fold change vs vehicle); higher = more activation of STING-IRF / NF-kB immune response reporter). Details: 0.3 µM; irradiation: none.

| SMILES | ISRE reporter |
| --- | --- |
| CCC(=O)OCC(=O)C1(OC(=O)CC)C(C)CC2C3CCC4=CC(=O)C=CC4(C)C3(Cl)C(O)CC21C (stereo not given) [Beclomethasone dipropionate] | 0.312 |
| CC(=O)Nc1ccc(OC(=O)c2ccccc2OC(C)=O)cc1 [Benorylate] | 0.641 |
| Nc1ccccc1NC(=O)c1ccc(CNC(=O)OCc2cccnc2)cc1 [Entinostat (MS-275)] | 0.984 |
| COc1cc(N2CCC(N3CCN(C)CC3)CC2)ccc1Nc1ncc(Cl)c(Nc2ccccc2P(C)(C)=O)n1 | 0.872 |
| Cc1c(-c2ccc(-c3ccccc3F)cc2)nc2ccc(F)cc2c1C(=O)O [Brequinar] | 1.24 |
| CCC1/C=C(\C)CC(C)CC(OC)C2OC(O)(C(=O)C(=O)N3CCCCC3C(=O)OC(/C(C)=C/C3CCC(Cl)C(OC)C3)C(C)C(O)CC1=O)C(C)CC2OC (stereo not given) [Pimecrolimus] | 1.21 |
| COC(=O)/C=C/C(=O)OC [Dimethyl Fumarate] | 0.699 |
| Cc1cc(Nc2ncc(Cl)c(Nc3ccccc3S(=O)(=O)C(C)C)n2)c(OC(C)C)cc1C1CCNCC1 [Ceritinib (LDK378)] | 0.92 |
| Nc1nc(Cl)nc2c1ncn2C1CC(O)C(CO)O1 (stereo not given) [Cladribine] | 1.07 |
| CC12CCC(=O)C=C1CCC1C2C(O)CC2(C)C1CCC2(O)C(=O)CO (stereo not given) [Hydrocortisone] | 0.716 |
| Cc1coc2c1C(=O)C(=O)c1c-2ccc2c(C)cccc12 [Tanshinone I] | 0.992 |
| Cn1cnc([N+](=O)[O-])c1Sc1ncnc2nc[nH]c12 [Azathioprine] | 0.988 |
| O=c1ccc2cc3ccoc3cc2o1 [Psoralen] | 0.65 |
| CCC(=O)NS(=O)(=O)c1ccc(-c2c(-c3ccccc3)noc2C)cc1 [Parecoxib] | 0.792 |
| COc1ccc(-c2ccc3cc(C(=O)O)ccc3c2)cc1C12CC3CC(CC(C3)C1)C2 [Adapalene] | 1.09 |
| CCC(C(=O)O)c1ccc(N2Cc3ccccc3C2=O)cc1 (stereo not given) [Indobufen] | 0.787 |
| COC1CC2CCC(C)C(O)(O2)C(=O)C(=O)N2CCCCC2C(=O)OC(C(C)CC2CCC(O)C(OC)C2)CC(=O)C(C)/C=C(\C)C(O)C(OC)C(=O)C(C)CC(C)/C=C/C=C/C=C/1C (stereo not given) [Rapamycin (Sirolimus)] | 1.36 |
| COc1ccc(C2CNC(=O)C2)cc1OC1CCCC1 (stereo not given) [Rolipram] | 0.847 |
| Nc1nc(N)c2nc(-c3ccccc3)c(N)nc2n1 [Triamterene] | 0.869 |
| CN(C)CCN1C(=O)c2cccc3cc(N)cc(c23)C1=O [Amonafide] | 1.59 |

| SMILES | ISRE reporter |
| --- | --- |
| CN1CCCC1CCOC(C)(c1ccccc1)c1ccc(Cl)cc1.O=C(O)/C=C/C(=O)O (stereo not given) [Clemastine Fumarate] | 1.22 |
| CC12C=CC(=O)C=C1CCC1C3CC(O)C(O)(C(=O)CO)C3(C)CC(O)C12F (stereo not given) [Triamcinolone] | 0.337 |
| CC1CC2C3CCC4=CC(=O)C=CC4(C)C3C(=O)CC2(C)C1(O)C(=O)CO (stereo not given) [Meprednisone] | 1.05 |
| CCS(=O)(=O)O.COC(=O)c1ccc2c(c1)NC(=O)/C2=C(\Nc1ccc(N(C)C(=O)CN2CCN(C)CC2)cc1)c1ccccc1 [Nintedanib Ethanesulfonate Salt] | 1.11 |
| CCCCCCCCCCCCCCCCCCOP(=O)([O-])OC1CC[N+](C)(C)CC1 [Perifosine (KRX-0401)] | 1.1 |
| CCC1(O)CC2CN(CCc3c([nH]c4ccccc34)C(C(=O)OC)(c3cc4c(cc3OC)N(C=O)C3C(O)(C(=O)OC)C(OC(C)=O)C5(CC)C=CCN6CCC43C65)C2)C1 (stereo not given) [Vincristine] | 1.27 |
| Cl.Nc1ccn(C2OC(CO)C(O)C2O)c(=O)n1 (stereo not given) [Cytarabine hydrochloride] | 3.15 |
| CC(=O)OC(C)C(C)C(=O)OCC12C3CC4(C)C(=CCC5C6(C)CCC(OC7OC(C(=O)[O][Na])C(OC8OC(CO)C(O)C(O)C8O)C(O)C7OC7OCC(O)C(O)C7O)C(C)(CO)C6CCC54C)C1CC(C)(C)C(O3)C2O (stereo not given) [Sodium Aescinate] | 0.85 |
| CCC(=O)OC1(C(=O)SCF)C(C)CC2C3CC(F)C4=CC(=O)C=CC4(C)C3(F)C(O)CC21C (stereo not given) [Fluticasone propionate] | 0.234 |
| CCCCC1(COC(=O)CCC(=O)O)C(=O)N(c2ccccc2)N(c2ccccc2)C1=O [Suxibuzone] | 1.05 |
| CS(=O)(=O)Nc1cc2occ(NC=O)c(=O)c2cc1Oc1ccccc1 [Iguratimod] | 0.811 |
| COc1cc2nccc(Oc3ccc(NC(=O)Nc4cc(C)on4)c(Cl)c3)c2cc1OC [Tivozanib (AV-951)] | 0.734 |
| Cc1ccc(S(=O)(=O)O)cc1.NC(=O)c1cccc2cn(-c3ccc(C4CCCNC4)cc3)nc12 (stereo not given) [Niraparib (MK-4827) tosylate] | 1.29 |
| CC(C)OC(=O)CCC/C=C\CC1C(O)CC(O)C1CCC(O)CCc1ccccc1 (stereo not given) [Latanoprost] | 0.839 |
| O=c1[nH]cc(F)c(=O)[nH]1 [Fluorouracil (5-Fluoracil, 5-FU)] | 1.11 |
| CC1(C(=O)O)CCC2(C)CCC3(C)C(=CC(=O)C4C5(C)CCC(OC6OC(C(=O)O)C(O)C(O)C6OC6OC(C(=O)O)C(O)C(O)C6O)C(C)(C)C5CCC43C)C2C1.N.N (stereo not given) [Diammonium Glycyrrhizinate] | 1.06 |
| CC1(C)CCC(CN2CCN(c3ccc(C(=O)NS(=O)(=O)c4ccc(NCC5CCOCC5)c([N+](=O)[O-])c4)c(Oc4cnc5[nH]ccc5c4)c3)CC2)=C(c2ccc(Cl)cc2)C1 [Venetoclax (ABT-199, GDC-0199)] | 0.806 |
| CCN(CC)Cc1cc(Nc2ccnc3cc(Cl)ccc23)ccc1O.Cl.Cl [Amodiaquine hydrochloride] | 1.12 |
| CCN(C(=O)c1c(O)c2c(Cl)cccc2n(C)c1=O)c1ccccc1 [Laquinimod] | 1.15 |
| O=C(c1ccc(OCCN2CCCCC2)cc1)c1c(-c2ccc(O)cc2)sc2cc(O)ccc12 [Raloxifene] | 0.953 |
